# Reference: PubChem BioAssay (NCATS)
# The list shows a part of the results. Shown are side measurements of this screen, not its main read-out; they come without a call. Most of these compounds were active or inconclusive in the main read-out, so they are no random draw. Words in brackets tell the shape of the fitted curve; partial curves, single points and poor fits give uncertain potencies.
# Experiment: qHTS Assay for Lipid Storage Modulators (AID 1519)
# Conditions: Drosophila S3 cells, BODIPY lipid droplet/cell ratio, laser cytometry, cells loaded with oleic acid
# How it was run: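 Cells seeded at 5,000 per well were treated with compounds over a concentration series and loaded with oleic acid (400 uM, as added). Lipid droplet fluorescence (488 nm excitation, 500-530 nm channel) was read by laser-scanning cytometry and normalized to 20 uM Triacsin C.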
# [1] = measured here: cell count channel max response
# [2] = measured here: lipid (BODIPY) channel AC50
# [3] = measured here: lipid channel max response
# [4] = measured here: cell number channel AC50
# Tags give direction and shape of the fitted curve.
SMILES,max response [1] [%],AC50 [2],max response [3] [%],AC50 [4]
CS(=O)(=O)N1CCC[C@@]2(CCN(c3ncccn3)C2)C1,24.1,"15800 nM [rising, partial curve]",35,
COCCn1c(=O)cnc2cnc(N(C)C)nc21,31.2,,40.4,"28200 nM [rising, single point]"
Cn1cccc1C(=O)N1CCC[C@@]2(CCN(c3cccc(-c4ccccc4)c3)C2)C1,-7.99,"5010 nM [rising, single point]",-32.9,
Cc1nc2cnc(Oc3ccccc3)nc2n(C2CC2)c1=O,16.1,"355 nM [rising, full curve, poor fit]",21.3,
COc1ccc(C(=O)N2CCC3(CCCN(Cc4nccs4)C3)CC2)cc1,26.5,"355 nM [rising, full curve]",39.9,
CN(C)C(=O)c1ccc(-c2ccc3ncnc(N4CCOCC4)c3c2)cc1,6.9,"3550 nM [rising, single point]",12.5,
C=C1C2CC[C@@]3(C)C(c4ccoc4)OC(=O)C[C@@]13OC1CC(OC(C)=O)C(C)(C)C(CC(=O)OC)[C@@]12C (stereo not given in full),-5.58,"11200 nM [falling, partial curve]",-36.7,
COc1ccc(-c2nc3cnc(N4CCNCC4)nc3n(Cc3cccc(OC)c3)c2=O)cc1,-8.14,"2240 nM [rising, partial curve, poor fit]",-15.6,
c1cncc(-c2nc(NCCN3CCOCC3)c3ccccc3n2)c1,17,"562 nM [rising, full curve, poor fit]",24.4,
COc1cccc(Nc2ncc3nc(-c4ccccc4)c(=O)n(C4CC4)c3n2)c1,-14.5,"39800 nM [falling, single point]",-64.1,
NC(Cc1cc(I)c(Oc2cc(I)c(O)c(I)c2)c(I)c1)C(=O)O (stereo not given),11.7,"14100 nM [rising, partial curve]",33.1,
OCCN1CC(O)C(O)C(O)C1CO (stereo not given),20.7,"39800 nM [rising, single point]",35.5,
COc1cccc(Cn2c(=O)c(-c3cc(F)cc(F)c3)nc3cnc(N4CCOCC4)nc32)c1,9.08,"447 nM [rising, full curve, poor fit]",13.3,
COc1ccc(-c2nc3cnc(N4CCOCC4)nc3n(-c3ccc(OC)cc3)c2=O)cc1,12.8,"2820 nM [rising, full curve, poor fit]",18.8,
Cn1cccc1C(=O)N1CCC2(CCCN(Cc3nccs3)C2)CC1,23.9,,29.4,"2820 nM [rising, partial curve, poor fit]"
O=c1c(-c2cc(F)cc(F)c2)nc2cnc(Oc3ccccc3)nc2n1C1CC1,20.5,"8.91 nM [rising, full curve, poor fit]",24.5,
O=C(c1cccc(F)c1)N1CCC2(CC1)CN(C(c1ccccc1)c1ccccc1)C2,23,"7.08 nM [rising, full curve, poor fit]",25.7,
CCNc1ncc2ncc(=O)n(Cc3ccc(F)cc3)c2n1,17.6,"2240 nM [rising, partial curve, poor fit]",11.6,
O=C(c1cnccn1)N1CCC2(CC1)CCN(c1ccccn1)CC2,21.3,"794 nM [rising, single point]",34.2,
CN(N=O)C(=O)N[C@H]1C(O)C(O)C(CO)O[C@@H]1O (stereo not given in full),19.8,"1120 nM [rising, full curve, poor fit]",35.9,
CCNc1ncc2nc(-c3ccc(F)cc3)c(=O)n(-c3ccccc3)c2n1,24,"44.7 nM [rising, full curve]",25,
O=C1C=CC(=C(c2ccc(O)cc2)c2ccc(O)cc2)C=C1,-6.56,"20000 nM [falling, single point]",-47.3,
O=C(O)C=Cc1ccc(Cn2ccnc2)cc1,25.7,"1000 nM [rising, full curve, poor fit]",32.5,
Nc1ncnc2c1[nH]c(=O)n2C1CC(O)C(CO)O1 (stereo not given),9.64,"39.8 nM [rising, full curve, poor fit]",37.4,
OC1C=C2CCN3Cc4cc5c(cc4C(C1O)C23)OCO5 (stereo not given),16.3,"17800 nM [rising, single point]",36,
